# Measured values taken from the supplement of paper PMC8728848.
# Some of the results follow.
# B1: Threefoil (Haloarcula marismortui) (protein)
# chain: GSSHHHHHHHHHHSSGLVPRGSHMGDGYYKLVARHSGKALDVENASTSDGANVIQYSYSGGDNQQWRLVDLGDGYYKLVARHSGKALDVENASTSDGANVIQYSYSGGDNQQWRLVDLGDGYYKLVARHSGKALDVENASTSDGANVIQYSYSGGDNQQWRLVDL
# Legend:
# Experiment in all cases: glycan array binding signal (z-score within array); higher = stronger binding
# Conditions in all cases: glycan notation: IUPAC condensed, linker removed
# [1] = biological target: Fuc(a1-2)Gal6S(b1-3)GlcNAc
# Procedure, shortened: (§1)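 The binding signal is a Z-score computed within each array. Data were drawn from 3228 arrays in the Consortium for Functional Glycomics database, restricted to those with a known protein sequence. Scores were averaged over arrays of the same protein sequence at different concentrations or buffers, and over linkers, and negative values can be taken as non-binding.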
# [2] = biological target: Fuc(a1-2)Gal6S(b1-3)GlcNAc6S
# Procedure, shortened: as §1
# [3] = biological target: Fuc(a1-2)Gal6S(b1-4)Glc
# Procedure, shortened: as §1
# [4] = biological target: Fuc(a1-2)Gal6S(b1-4)Glc6S
# Procedure, shortened: as §1
# [5] = biological target: Fuc(a1-2)[Gal(a1-3)]Gal
# Procedure, shortened: as §1
# [6] = biological target: Fuc(a1-2)[Gal(a1-3)]Gal(b1-3)GalNAc
# Procedure, shortened: as §1
# [7] = biological target: Fuc(a1-2)[Gal(a1-3)]Gal(b1-3)GalNAc(b1-3)Gal(a1-4)Gal(b1-4)Glc
# Procedure, shortened: as §1
# [8] = biological target: Fuc(a1-2)[Gal(a1-3)]Gal(b1-3)GlcNAc
# Procedure, shortened: as §1
# [9] = biological target: Fuc(a1-2)[Gal(a1-3)]Gal(b1-3)GlcNAc(b1-2)Man(a1-3)[Fuc(a1-2)[Gal(a1-3)]Gal(b1-3)GlcNAc(b1-2)Man(a1-6)]Man(b1-4)GlcNAc(b1-4)GlcNAc
# Procedure, shortened: as §1
# [10] = biological target: Fuc(a1-2)[Gal(a1-3)]Gal(b1-3)GlcNAc(b1-2)Man(a1-3)[Fuc(a1-2)[Gal(a1-3)]Gal(b1-3)GlcNAc(b1-2)Man(a1-6)]Man(b1-4)GlcNAc(b1-4)[Fuc(a1-6)]GlcNAc
# Procedure, shortened: as §1
# [11] = biological target: Fuc(a1-2)[Gal(a1-3)]Gal(b1-3)GlcNAc(b1-3)GalNAc
# Procedure, shortened: as §1
# [12] = biological target: Fuc(a1-2)[Gal(a1-3)]Gal(b1-3)GlcNAc(b1-6)GalNAc
# Procedure, shortened: as §1
# [13] = biological target: Fuc(a1-2)[Gal(a1-3)]Gal(b1-4)Glc
# Procedure, shortened: as §1
# [14] = biological target: Fuc(a1-2)[Gal(a1-3)]Gal(b1-4)GlcNAc
# Procedure, shortened: as §1
# [15] = biological target: Fuc(a1-2)[Gal(a1-3)]Gal(b1-4)GlcNAc(b1-2)Man
# Procedure, shortened: as §1
# [16] = biological target: Fuc(a1-2)[Gal(a1-3)]Gal(b1-4)GlcNAc(b1-2)Man(a1-3)[Fuc(a1-2)[Gal(a1-3)]Gal(b1-4)GlcNAc(b1-2)Man(a1-6)]Man(b1-4)GlcNAc(b1-4)GlcNAc
# Procedure, shortened: as §1
# [17] = biological target: Fuc(a1-2)[Gal(a1-3)]Gal(b1-4)GlcNAc(b1-2)Man(a1-3)[Fuc(a1-2)[Gal(a1-3)]Gal(b1-4)GlcNAc(b1-2)Man(a1-6)]Man(b1-4)GlcNAc(b1-4)[Fuc(a1-6)]GlcNAc
# Procedure, shortened: as §1
# [18] = biological target: Fuc(a1-2)[Gal(a1-3)]Gal(b1-4)GlcNAc(b1-3)GalNAc
# Procedure, shortened: as §1
# [19] = biological target: Fuc(a1-2)[Gal(a1-3)]Gal(b1-4)GlcNAc(b1-6)GalNAc
# Procedure, shortened: as §1
# [20] = biological target: Fuc(a1-2)[Gal(a1-3)]Gal(b1-4)[Fuc(a1-3)]Glc
# Procedure, shortened: as §1
# [21] = biological target: Fuc(a1-2)[Gal(a1-3)]Gal(b1-4)[Fuc(a1-3)]GlcNAc
# Procedure, shortened: as §1
# [22] = biological target: Fuc(a1-2)[Gal(a1-3)]Gal(b1-4)[Fuc(a1-3)]GlcNAc(b1-3)GalNAc
# Procedure, shortened: as §1
# [23] = biological target: Fuc(a1-2)[Gal(a1-4)]Gal(b1-4)GlcNAc
# Procedure, shortened: as §1
# [24] = biological target: Fuc(a1-2)[GalNAc(a1-3)]Gal
# Procedure, shortened: as §1
# [25] = biological target: Fuc(a1-2)[GalNAc(a1-3)]Gal(b1-3)GalNAc(a1-3)[Fuc(a1-2)]Gal(b1-4)GlcNAc
# Procedure, shortened: as §1
# [26] = biological target: Fuc(a1-2)[GalNAc(a1-3)]Gal(b1-3)GalNAc(b1-3)Gal(a1-4)Gal(b1-4)Glc
# Procedure, shortened: as §1
# [27] = biological target: Fuc(a1-2)[GalNAc(a1-3)]Gal(b1-3)GlcNAc
# Procedure, shortened: as §1
# [28] = biological target: Fuc(a1-2)[GalNAc(a1-3)]Gal(b1-3)GlcNAc(b1-2)Man(a1-3)[Fuc(a1-2)[GalNAc(a1-3)]Gal(b1-3)GlcNAc(b1-2)Man(a1-6)]Man(b1-4)GlcNAc(b1-4)GlcNAc
# Procedure, shortened: as §1
# [29] = biological target: Fuc(a1-2)[GalNAc(a1-3)]Gal(b1-3)GlcNAc(b1-2)Man(a1-3)[Fuc(a1-2)[GalNAc(a1-3)]Gal(b1-3)GlcNAc(b1-2)Man(a1-6)]Man(b1-4)GlcNAc(b1-4)[Fuc(a1-6)]GlcNAc
# Procedure, shortened: as §1
# [30] = biological target: Fuc(a1-2)[GalNAc(a1-3)]Gal(b1-3)GlcNAc(b1-3)GalNAc
# Procedure, shortened: as §1
# [31] = biological target: Fuc(a1-2)[GalNAc(a1-3)]Gal(b1-3)GlcNAc(b1-6)GalNAc
# Procedure, shortened: as §1
# [32] = biological target: Fuc(a1-2)[GalNAc(a1-3)]Gal(b1-4)Glc
# Procedure, shortened: as §1
# [33] = biological target: Fuc(a1-2)[GalNAc(a1-3)]Gal(b1-4)GlcNAc
# Procedure, shortened: as §1
# [34] = biological target: Fuc(a1-2)[GalNAc(a1-3)]Gal(b1-4)GlcNAc(b1-2)Man
# Procedure, shortened: as §1
# [35] = biological target: Fuc(a1-2)[GalNAc(a1-3)]Gal(b1-4)GlcNAc(b1-2)Man(a1-3)[Fuc(a1-2)[GalNAc(a1-3)]Gal(b1-4)GlcNAc(b1-2)Man(a1-6)]Man(b1-4)GlcNAc(b1-4)GlcNAc
# Procedure, shortened: as §1
# [36] = biological target: Fuc(a1-2)[GalNAc(a1-3)]Gal(b1-4)GlcNAc(b1-2)Man(a1-3)[Fuc(a1-2)[GalNAc(a1-3)]Gal(b1-4)GlcNAc(b1-2)Man(a1-6)]Man(b1-4)GlcNAc(b1-4)[Fuc(a1-6)]GlcNAc
# Procedure, shortened: as §1
# [37] = biological target: Fuc(a1-2)[GalNAc(a1-3)]Gal(b1-4)GlcNAc(b1-3)Gal(b1-4)GlcNAc
# Procedure, shortened: as §1
# [38] = biological target: Fuc(a1-2)[GalNAc(a1-3)]Gal(b1-4)GlcNAc(b1-3)Gal(b1-4)GlcNAc(b1-3)Gal(b1-4)GlcNAc
# Procedure, shortened: as §1
# [39] = biological target: Fuc(a1-2)[GalNAc(a1-3)]Gal(b1-4)GlcNAc(b1-3)GalNAc
# Procedure, shortened: as §1
# [40] = biological target: Fuc(a1-2)[GalNAc(a1-3)]Gal(b1-4)GlcNAc(b1-3)[Fuc(a1-2)[GalNAc(a1-3)]Gal(b1-4)GlcNAc(b1-6)]GalNAc
# Procedure, shortened: as §1
# [41] = biological target: Fuc(a1-2)[GalNAc(a1-3)]Gal(b1-4)GlcNAc(b1-6)GalNAc
# Procedure, shortened: as §1
# [42] = biological target: Fuc(a1-2)[GalNAc(a1-3)]Gal(b1-4)[Fuc(a1-3)]GlcNAc
# Procedure, shortened: as §1
# [43] = biological target: Fuc(a1-2)[GalNAc(a1-3)]Gal(b1-4)[Fuc(a1-3)]GlcNAc(b1-3)GalNAc
# Procedure, shortened: as §1
# [44] = biological target: Fuc(a1-2)[GalNAc(a1-4)]Gal(b1-4)GlcNAc
# Procedure, shortened: as §1
# [45] = biological target: Fuc(a1-2)[GalNAc(b1-3)]Gal
# Procedure, shortened: as §1
binder,measurement,setting,value
B1,glycan array binding signal (z-score),[1],-0.22
same,glycan array binding signal (z-score),[2],-0.15
same,glycan array binding signal (z-score),[3],-0.265
same,glycan array binding signal (z-score),[4],-0.153
same,glycan array binding signal (z-score),[5],-0.112
same,glycan array binding signal (z-score),[6],-0.209
same,glycan array binding signal (z-score),[7],-0.236
same,glycan array binding signal (z-score),[8],-0.123
same,glycan array binding signal (z-score),[9],-0.227
same,glycan array binding signal (z-score),[10],-0.156
same,glycan array binding signal (z-score),[11],-0.235
same,glycan array binding signal (z-score),[12],0.017
same,glycan array binding signal (z-score),[13],-0.335
same,glycan array binding signal (z-score),[14],-0.26
same,glycan array binding signal (z-score),[15],-0.123
same,glycan array binding signal (z-score),[16],-0.135
same,glycan array binding signal (z-score),[17],-0.223
same,glycan array binding signal (z-score),[18],-0.182
same,glycan array binding signal (z-score),[19],-0.323
same,glycan array binding signal (z-score),[20],-0.186
same,glycan array binding signal (z-score),[21],-0.09
same,glycan array binding signal (z-score),[22],-0.309
same,glycan array binding signal (z-score),[23],-0.168
same,glycan array binding signal (z-score),[24],-0.17
same,glycan array binding signal (z-score),[25],-0.303
same,glycan array binding signal (z-score),[26],-0.169
same,glycan array binding signal (z-score),[27],-0.165
same,glycan array binding signal (z-score),[28],-0.052
same,glycan array binding signal (z-score),[29],-0.144
same,glycan array binding signal (z-score),[30],-0.266
same,glycan array binding signal (z-score),[31],-0.313
same,glycan array binding signal (z-score),[32],-0.222
same,glycan array binding signal (z-score),[33],-0.244
same,glycan array binding signal (z-score),[34],-0.136
same,glycan array binding signal (z-score),[35],-0.182
same,glycan array binding signal (z-score),[36],-0.315
same,glycan array binding signal (z-score),[37],-0.193
same,glycan array binding signal (z-score),[38],-0.252
same,glycan array binding signal (z-score),[39],-0.315
same,glycan array binding signal (z-score),[40],-0.062
same,glycan array binding signal (z-score),[41],-0.199
same,glycan array binding signal (z-score),[42],0.063
same,glycan array binding signal (z-score),[43],-0.193
same,glycan array binding signal (z-score),[44],-0.341
same,glycan array binding signal (z-score),[45],0.019
